Laboratory results reported in patent US4220790A, “1-N,N-Dimethylcarbamyl-3-tert.butyl-5-methylthio-1,2,4-triazole” (priority 1977, dated 1980).
The name of at least one read-out is uncertain.

Assays:
[1] = test system: Mexican bean beetle; experiment: Spray test on Mexican bean beetle larvae (MBB); assay type: in vivo; conditions: 500 ppm; 48 hours after spraying
[2] = test system: two-spotted mites; experiment: Spray test on two-spotted mites (TSM); assay type: in vivo, two-spotted mite; conditions: 500 ppm; 48 hours after spraying
Description: Method for Mites, Aphids, Bean Beetles and Army Worms
Three 5 oz. paper cups containing Henderson dwarf lima bean plants and one 5 oz. paper cup containing Orange Gem nasturtiums, all growing in vermiculite, are placed on a turntable and sprayed to thorough wetness with 25 ml of a solution of the candidate chemical at the appropriate concentration. Nasturtiums were already infested with 50-100 bean aphids (BA). A bean plant in one paper cup was already infested with 50-100 two-spotted mites (TSM). Leaves from the two remaining bean plants are removed following spraying and placed in disposable petri dishes with 5 southern armyworm (SA) larvae in one petri dish, and 5 Mexican bean beetle (MBB) larvae in the other petri dish. The rating is done approximately 48 hours after spraying as follows:
(§1) Results obtained with the novel insecticide of this invention at various concentrations of active chemical are tabulated below. The ratings given are for averages of three or more replicates. The oral lethal dose for 50 percent kill of laboratory rats is also recorded in the table. In conducting the toxicity tests on rats, 0.01 g of active chemical per ml in corn oil is employed as an additive to the diet of the animals.

[3] = test system: bean aphids; experiment: Spray test on bean aphids (BA); assay type: in vivo, bean aphid; conditions: 48 hours after spraying
[4] = test system: southern armyworm; experiment: Spray test on southern armyworm larvae (SA); assay type: in vivo; conditions: 500 ppm; 48 hours after spraying
[5] = test system: Southern Corn Rootworm; experiment: Southern corn rootworm (SCR) test in cups with corn; assay type: in vivo; conditions: 100 ppm; nine days after treatment
Description: Method for Southern Corn Rootworm (SCR)
Three 5 oz. paper cups planted each with one kernel of DeKalb XL-361 corn are treated two days after planting with 10 ml of a 125 ppm solution of the candidate compound. Compounds with high efficacy are tested at lower concentrations. The experiment is a 4×5 factorial in a randomized complete block design with three replications. The tests are evaluated nine days after treatment. The roots are inspected under a dissecting microscope and rated as follows:
SCR Rating % Root Feeding Damage
So as to obtain more meaningful results, all tests are performed at the same time of day, whenever possible, usually in the forenoon. Temperature,illumination and humidity are the same in all tests. Atmospheric pressure is not controlled.
as §1

CCN(CC)C(=O)n1nc(SCC(C)C)nc1C
Mexican bean beetle rating [1]: 0 (no larvae dead)
Two-Spotted Mites rating [2]: 0 (no dead adults)
Bean Aphid rating ([3]; 15 ppm): 0 (none dead)
Bean Aphid rating ([3]; 31 ppm): 0 (none dead)
Bean Aphid rating ([3]; 62 ppm): 0 (none dead)
Bean Aphid rating ([3]; 125 ppm): 0 (none dead)
Bean Aphid rating ([3]; 250 ppm): 0 (none dead)
Bean Aphid rating ([3]; 500 ppm): 4 (76-100% dead)
Southern Armyworm rating [4]: 0 (no larvae dead)
Corn Rootworm (SCR) rating [5]: 0 (100)

CSc1nc(-c2ccccc2)nn1C(=O)N(C)C [Example XV]
Mexican bean beetle rating [1]: 0 (no larvae dead)
Two-Spotted Mites rating [2]: 0 (no dead adults)
Bean Aphid rating ([3]; 15 ppm): 0 (none dead)
Bean Aphid rating ([3]; 31 ppm): 0 (none dead)
Bean Aphid rating ([3]; 62 ppm): 0 (none dead)
Bean Aphid rating ([3]; 125 ppm): 1 (1-25% dead)
Bean Aphid rating ([3]; 250 ppm): 3 (51= 75% dead)
Bean Aphid rating ([3]; 500 ppm): 3 (51= 75% dead)
Southern Armyworm rating [4]: 0 (no larvae dead)
Corn Rootworm (SCR) rating [5]: 0 (100)
